Measurements: the supplement of paper PMC8748497
The list shows a part of the results.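 The calls were made as follows: active = fold change of at least 2 over DMSO control; inactive = below 2-fold.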 Many values rest on one well or one pass, so single values are uncertain.

System: HEK293 ARE/NRF2-luciferase reporter
Experiment: ARE/NRF2 luciferase reporter activity, fold change over DMSO control; higher = stronger NRF2/ARE reporter activation
Settings: 10 µM; 24 h

Row | SMILES | ARE/NRF2 luciferase reporter activity
1 | COc1cc(OC)c(OC)cc1C=O | inactive: 0.439
2 | CCC12C=CCN3CC[C@@]4(c5ccc(OC)cc5N(C)[C@H]4[C@@](O)(C(=O)OC)[C@@H]1OC(C)=O)[C@@H]32 (stereo partly drawn) | inactive: 0.858
3 | CC(C)(C)NCC(O)c1ccccc1Cl (stereo not drawn) | inactive: 0.86
4 | C[C@@H]1O[C@@H](O[C@@H]2C=C3CC[C@@H]4[C@H](CC[C@]5(C)[C@@H](c6ccc(=O)oc6)CC[C@]45O)[C@@]3(C)CC2)[C@H](O)[C@H](O)[C@H]1O | inactive: 1.05
5 | C#C[C@]1(O)C=C[C@H]2[C@@H]3CCC4=CC(=O)CC[C@@H]4[C@H]3CC[C@@]21CC | inactive: 0.829
6 | Cc1cccc(Cc2c[nH]cn2)c1C | inactive: 0.993
7 | C#C[C@]1(O)CC[C@H]2[C@@H]3CCC4=CC(=O)CC[C@]4(C)[C@H]3CC[C@@]21C | inactive: 0.982
8 | C=CCSSCC=C | inactive: 0.857
9 | CNC1CC(N)C(O)C(OC2OC(CO)C(O)C3OC4(OC(C(N)CO)C(O)C(O)C4O)OC23)C1O (stereo not drawn) | inactive: 1.04
10 | CN1CC[C@@]2(C)c3cc(O)ccc3N(C)[C@@H]12 | active: 2.08
11 | COc1cccc(C2(O)CCCCC2CN(C)C)c1 (stereo not drawn) | inactive: 0.726
12 | C=C(C)[C@H]1Cc2c(ccc3c(=O)c4c(oc23)COc2cc(OC)c(OC)cc2-4)O1 | inactive: 1.07
13 | C[C@H]1O[C@H](O[C@H]2[C@H](O)[C@@H](O)[C@@H](O)[C@H](O)[C@@H]2O)[C@@H](N)C[C@@H]1NC(=N)C(=O)O | inactive: 0.857
14 | Nc1nc(N)nc(NC2CC2)n1 | inactive: 0.97
15 | CC[C@@H](C(=O)O)[C@@H]1O[C@@H]([C@@H](C)[C@H](O)[C@H](C)C(=O)[C@H](CC)[C@H]2O[C@]3(C=C[C@@H](O)[C@]4(CC[C@@](C)([C@H]5CC[C@](O)(CC)[C@H](C)O5)O4)O3)[C@H](C)C[C@@H]2C)[C@@H](C)C[C@@H]1C | inactive: 1.04
16 | C[C@@]12C(=O)OC(=O)[C@]1(C)[C@H]1CC[C@@H]2O1 | inactive: 0.0569
17 | CCSCC[C@H](N)C(=O)O | inactive: 0.94
18 | Clc1ccc(C(OCCN2CCCCC2)c2ccccc2)cc1 (stereo not drawn) | inactive: 0.371
19 | C=CCC1(C(C)CCC)C(=O)NC(=S)NC1=O (stereo not drawn) | inactive: 0.984

Row | SMILES | ARE/NRF2 luciferase reporter activity
20 | OC[C@@H]1CCCN2CCCC[C@H]12 | inactive: 0.235
21 | CN1C[C@H](C(=O)N[C@]2(C)O[C@@]3(O)[C@@H]4CCCN4C(=O)[C@H](Cc4ccccc4)N3C2=O)C[C@@H]2c3cccc4[nH]cc(c34)C[C@H]21 | inactive: 0.896
22 | COc1cc2c(cc1OC)[C@@H]1C(=O)c3ccc4oc(C(C)C)cc4c3O[C@@H]1CO2 | inactive: 0.52
23 | COc1ccc2c(c1)[nH]c1c(C)nccc12 | inactive: 0.0852
24 | OCC(Br)(Br)Br | inactive: 1.32
25 | CC(O)(CS(=O)(=O)c1ccc(F)cc1)C(=O)Nc1ccc(C#N)c(C(F)(F)F)c1 (stereo not drawn) | inactive: 0.907
26 | COc1cc([C@@H]2c3cc4c(cc3[C@H](OC(C)=O)[C@H]3COC(=O)[C@@H]23)OCO4)cc(OC)c1OC | inactive: 0.833
27 | C[N+]1(C)CCOC(O)(c2ccc(-c3ccc(C4(O)C[N+](C)(C)CCO4)cc3)cc2)C1 (stereo not drawn) | inactive: 0.818
28 | O=C(N/N=C/c1ccc([N+](=O)[O-])o1)c1cc([N+](=O)[O-])cc([N+](=O)[O-])c1O | active: 3.74
29 | COc1cc2c(cc1OC)[C@@H]1C(=O)c3ccc4c(c3O[C@@H]1CO2)CC(C(C)C)O4 (stereo partly drawn) | inactive: 0.534
30 | C[C@@H](N)[C@@H](O)c1ccccc1 | inactive: 0.854
31 | O=C(O)CC[N+](=O)[O-] | inactive: 0.802
32 | c1ccc2c(c1)sc1ccccc12 | inactive: 1.22
33 | CC[C@@]1(O)C(=O)OCc2c1cc1n(c2=O)Cc2cc3ccccc3nc2-1 | inactive: 0.0651
34 | Cc1ncc(CNC(=O)N(CCCl)N=O)c(N)n1 | inactive: 0.883
35 | COc1cc2occc2c2oc(=O)ccc12 | inactive: 1.59
36 | O=[N+]([O-])O[C@H]1CO[C@H]2[C@@H]1OC[C@H]2O[N+](=O)[O-] | inactive: 1.01
37 | C/C=C(\C)C(=O)O[C@H]1C[C@@H](OC(C)=O)[C@@]2(C(=O)OC)CO[C@H]3[C@@H](O)[C@@](C)([C@]45O[C@@]4(C)[C@H]4C[C@@H]5O[C@@H]5OC=C[C@@]54O)[C@H]4[C@]1(CO[C@]4(O)C(=O)OC)[C@@H]32 | inactive: 0.969
38 | O=[N+]([O-])c1ccc(O)c([N+](=O)[O-])c1 | inactive: 1.09
